The campaign covered roughly 43,000 compounds. About 200 (0.47%) were called active. The shares of active, inactive and inconclusive entries below differ from those in the screen. Calls come from the whole dose curve; as a rule, active = well fitted cell-killing curve with a large enough effect; inconclusive = small, poorly fitted or top-dose-only effect, or effect the other way; inactive = flat fitted curve, though single readings scatter. Where the call is inconclusive, the potency comes from a doubtful curve fit.
Experiment: Cell viability qHTS assay in S16 Pmp22-F2sN cells; note: nearly all actives have a fitted effect of over 65% in size
Settings: S16 Pmp22-F2sN Schwann cells (luciferase reporters placed in the Pmp22 gene) viability, CellTiter-Glo, 24 h; activity change, negative = cytotoxicity: at 57.5 µM (top of the series)
Outline: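 CellTiter-Glo counter-screen, qHTS, 1536-well. Cells: S16(c9) Pmp22-F2sN, 500-1,000/well in DMEM + 10% FBS. Cpd 23 nL pin transfer, 24 h, 37C/5% CO2. Read: luminescence, CCD imager.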
% is set by controls: 0 for no effect and ±100 for the full control effect; potency is the fitted concentration of half-maximal effect; tags give direction and shape of the fitted curve.

SMILES	Potency	activity change, negative = cytotoxicity
Cn1c(=O)c2cc(C(=O)NC3CCCCCC3)sc2c2ccccc21	inconclusive: 39.8 µM [cytotoxic, single point]	
Cc1noc(/C=C/c2cccs2)c1S(=O)(=O)N1CCC(C(=O)NCc2ccc(Cl)cc2)CC1	inconclusive: 22.4 µM [cytotoxic, single point]	
CCOc1ccccc1CNC(=O)c1cccc(NC(=O)c2nsc3ccccc23)c1	inconclusive: 31.6 µM [cytotoxic, single point]	
CCCc1oc2ccc(NS(=O)(=O)c3ccc(OC)cc3)cc2c1C(=O)OCC		inactive: 8.01%
COc1ccc(OC)c(CCNC(=O)C(C)n2nc(C)c3c(C)n(-c4ccc(C)cc4)nc3c2=O)c1 (centres undefined)	inconclusive: 39.8 µM [cytotoxic, single point]	
O=C1C(c2ccc(C(F)(F)F)cc2)=C(Nc2ccc(Cl)cc2)c2ccccc21	inconclusive: 39.8 µM [cytotoxic, single point]	
CCN(C(=O)Cn1nc(Cc2cccnc2)c2ccccc2c1=O)c1cc(C)ccc1C	inconclusive: 14.1 µM [rising, partial curve]	
Cc1ccc(C)c(CN2C(=O)c3ccccc3Sc3ccc(C(=O)NCc4ccco4)cc32)c1		inactive: -18%
COc1ccc(Cn2c(SCC(=O)NCc3ccccc3)nc3ccccc32)cc1	inconclusive: 25.1 µM [cytotoxic, single point]	
Cc1cccc(NC(=O)CSc2nc(-c3cccs3)cc(C(F)(F)F)c2C#N)c1	inconclusive: 14.1 µM [cytotoxic, partial curve]	
Cc1ccc2c(c1)C(c1ccc(F)cc1)N(C(=O)C(C)C)CC(=O)N2 (centres undefined)	inconclusive: 39.8 µM [rising, single point]	
CCOc1ccc(NC(=O)CC2C(=O)N(c3cccc(OC)c3)C(=O)N2C2CCCCC2)cc1 (centres undefined)	inconclusive: 20 µM [cytotoxic, single point]	
COc1ccc(-c2nn(C)c3sc(C(=O)N4CCN(c5cccc(C)c5C)CC4)cc23)cc1OC		inactive: -2.81%
CCOC(=O)c1ccccc1NC(=O)CN(c1ccccc1OC)S(=O)(=O)c1ccc(C)cc1	inconclusive: 39.8 µM [cytotoxic, partial curve, poor fit]	
O=C(/C=C/c1cn(CC(O)CN2CCCCCC2)c2ccccc12)c1ccccc1 (centres undefined)	inconclusive: 39.8 µM [cytotoxic, partial curve, poor fit]	
COc1ccc(-n2ccnc(NCCc3ccc(S(N)(=O)=O)cc3)c2=O)cc1	inconclusive: 39.8 µM [cytotoxic, single point]	
COc1cc(/C=C/c2nc(C#N)c(NC3CCCCC3)o2)cc(OC)c1OC	inconclusive: 39.8 µM [cytotoxic, single point]	
CCOc1ccc(NC(=O)Cn2c(C)ccc(C#N)c2=O)cc1	inconclusive: 39.8 µM [rising, single point]	
CSc1ccc(CNC(=O)CCn2ccc3cc(S(=O)(=O)N4CCCC4)ccc32)cc1	inconclusive: 31.6 µM [cytotoxic, partial curve, poor fit]	
Cc1cc(C)cc(NC(=O)NCCn2nnc3cc(S(=O)(=O)N(C)C)ccc32)c1		inconclusive: -36.5% [cytotoxic]

SMILES	Potency	activity change, negative = cytotoxicity
CCOc1ccc(C(=O)OCc2cc(=O)n3nc(C4CCCCC4)sc3n2)cc1	inconclusive: 39.8 µM [cytotoxic, partial curve, poor fit]	
Cc1c(C(=O)Nc2ccccc2Br)oc2ccc(S(=O)(=O)N3CCCCC3)cc12		inactive: 2.84%
COc1ccc(OC)c(C2CC(=O)c3c([nH]c(C(=O)OCC4CCCCC4)c3C)C2)c1 (centres undefined)	inconclusive: 25.1 µM [cytotoxic, single point]	
O=C(Cc1ccc(NC(=O)N2CCSc3ncccc32)cc1)NCc1ccccc1Cl	inconclusive: 39.8 µM [cytotoxic, single point]	
CCOc1ccc(S(=O)(=O)Nc2ccc3oc(C)c(C(=O)OCCOC)c3c2)cc1		inactive: 1.44%
Cc1csc2nc(COC(=O)COc3ccccc3F)cc(=O)n12	inconclusive: 3.16 µM [cytotoxic, partial curve, poor fit]	
COc1ccccc1NC(=O)n1ncc2c(C)cccc21	inconclusive: 6.31 µM [rising, single point]	
CC(NC(=O)Cn1ncc2c3ccccc3n(Cc3ccc(F)cc3)c2c1=O)c1ccccc1 (centres undefined)	inconclusive: 39.8 µM [cytotoxic, single point]	
COc1ccc(Cl)cc1NS(=O)(=O)c1cc(-c2cc(C)no2)ccc1C		inactive: -18.8%
COc1ccc(-c2cc(C(=O)Nc3c(C(=O)c4ccc(Cl)cc4)oc4ccccc34)no2)cc1	inconclusive: 31.6 µM [rising, partial curve, poor fit]	
CCN(Cc1ccccc1)C(=O)C1CCN(c2ncnc3c2nc2n3CCCCC2)CC1	inconclusive: 1.12 µM [rising, partial curve, poor fit]	
Cc1ccc(-n2cc(-c3ccccc3)c3c(NC4CCCC4)ncnc32)cc1	inconclusive: 2.51 µM [rising, partial curve, poor fit]	
Cc1ccc(NC(=O)CN2C(=O)C(c3ccc(F)cc3)=NC23CCCCC3)c(C)c1	inconclusive: 39.8 µM [cytotoxic, single point]	
COc1cccc(N2C(=O)C(CC(=O)Nc3ccc(Cl)cc3)N(Cc3ccc4c(c3)OCO4)C2=O)c1 (centres undefined)	inconclusive: 35.5 µM [cytotoxic, partial curve, poor fit]	
CCn1cc(C(=O)NCCCOC(C)C)c(=O)c2cc(S(=O)(=O)N3CCc4ccccc4C3)ccc21	inconclusive: 35.5 µM [cytotoxic, partial curve, poor fit]	
CCc1nnc(NC(=O)c2nc(S(=O)(=O)Cc3cccc(C)c3)ncc2Cl)s1	inconclusive: 39.8 µM [cytotoxic, single point]	
Cn1c(NCCCCO)nc2c1c(=O)n(Cc1ccc(Cl)cc1)c(=O)n2C	inconclusive: 25.1 µM [cytotoxic, single point]	
Cc1ccc(NC(=O)Cn2nc(C)c3nn(-c4ccc(Cl)cc4)c(C)c3c2=O)cc1C	inconclusive: 28.2 µM [cytotoxic, partial curve, poor fit]	
COc1ccc(Cn2c(C(=O)O)c(CNCc3cccc(OC)c3)c3ccc(C)cc32)cc1	inconclusive: 20 µM [cytotoxic, partial curve]	
CCCCN(CC)CCNC(=O)Cn1cnc2sc(C)c(S(=O)(=O)N3CCC(C)CC3)c2c1=O		inactive: -1.06%

SMILES	Potency	activity change, negative = cytotoxicity
Cc1cc(C)cc(OCCn2c(C3CC(=O)N(c4ccccc4Cl)C3)nc3ccccc32)c1 (centres undefined)	inconclusive: 39.8 µM [cytotoxic, single point]	
CCOC(=O)c1cc(S(=O)(=O)Nc2ccc(Br)c(C)c2)[nH]n1	inconclusive: 0.0282 µM [cytotoxic, full curve, poor fit]	
CCCNC(=O)c1cc2nc(-c3ccc(Br)cc3)cc(C(F)(F)F)n2n1	inconclusive: 39.8 µM [rising, single point]	
Cc1ccc(-c2cn(-c3cccc(Cl)c3)c(S(=O)(=O)CC(=O)Nc3ccccc3F)n2)cc1		inactive: -26.7%
CCc1ccccc1NC(=O)c1ccc2nc(C(C)C)oc2c1	inconclusive: 28.2 µM [cytotoxic, partial curve]	
CCc1ccc(NC(=O)c2ccc(F)c(S(=O)(=O)N3CCN(c4ccc(OC)cc4)CC3)c2)cc1		inactive: 10.1%
COc1ccccc1CNC(=O)CCCN1C(=O)CSc2c1c(C)nn2-c1ccccc1	inconclusive: 39.8 µM [cytotoxic, single point]	
O=C(Cn1c(=O)n(Cc2ccccc2)c(=O)c2sc3ccccc3c21)Nc1ccccc1F	inconclusive: 14.1 µM [rising, partial curve, poor fit]	
O=C(Nc1ccc2c(c1)CCCN2C(=O)c1cccs1)c1ccccc1	inconclusive: 39.8 µM [cytotoxic, single point]	
Cc1cc(C)cc(NC(=O)Nc2ccc3nc(N4CCN(C)CC4)cc(C)c3c2)c1	inconclusive: 28.2 µM [cytotoxic, single point]	
COc1cc(OC)c(-c2cc(C(=O)NCc3ccc(F)cc3)c3c(-c4ccccc4)[nH]nc3n2)cc1OC	inconclusive: 39.8 µM [cytotoxic, single point]	
CC(=O)N1c2ccc(S(=O)(=O)N3CCCCCC3)cc2CC1C(=O)NCc1ccccc1C (centres undefined)	inconclusive: 7.08 µM [cytotoxic, single point]	
CC(C)(C)c1ccc(C(=O)NCC(c2ccco2)S(=O)(=O)c2ccc(F)cc2)cc1 (centres undefined)	inconclusive: 39.8 µM [cytotoxic, single point]	
COc1ccc(CNC(=O)CSc2ncc3c(n2)-c2ccc(Cl)cc2N(Cc2ccc(F)cc2)S3(=O)=O)cc1OC	inconclusive: 31.6 µM [cytotoxic, single point]	
CCc1ccc2ncc(C(=O)c3ccc(C)c(C)c3)c(N3CCC(C(N)=O)CC3)c2c1		inactive: -8.06%
CCc1ccc(CNC(=O)c2ccc3nc(SCc4ccc(F)cc4)n(C)c3c2)cc1		inactive: -2.86%
CC1=C(C(=O)Nc2ccc(Cl)cc2)C(c2ccccc2C)n2ncc(C(=O)Nc3ccc(C)cc3)c2N1 (centres undefined)	inconclusive: 39.8 µM [cytotoxic, single point]	
CN(C)c1ccc(CNC(=O)C2CCCN(S(=O)(=O)c3ccc4c(c3)oc(=O)n4C)C2)cc1 (centres undefined)		inactive: 4.16%
COc1ccc(OC)c(-c2nc3c(C#N)c[nH]n3c2NC2CCCCC2)c1	inconclusive: 39.8 µM [cytotoxic, single point]	
